# According to the supplement of paper PMC10338343:
# ± gives the standard deviation. The full ranking holds about 6,600 sequences; the median of “pre-steady-state target cleavage rate” is about 0.07, and the highest 2% start at about 0.72. The entries are a selection whose mix differs from that of the whole data set.
# System: MIWI (PIWIL1) piRISC loaded with Kctd7 piRNA (30 nt)
# Experiment: pre-steady-state target cleavage rate (min^-1); MIWI and MILI are mouse PIWI proteins and EfPiwi is from a freshwater sponge; tags in brackets are library labels; higher = faster piRNA-guided slicing of the target
# Settings: guide: Kctd7 piRNA 5'p-UGUUAAUCUCUCAGAGAAGGUGACAGUGAU; auxiliary factor: 500 nM mouse GTSF1
# Outline: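 The pre-steady-state cleavage rate was obtained by Cleave-'n-Seq with a burst-and-steady-state fit. A transcribed, DNA-blocked target RNA library (0.1 nM) was mixed with 1 nM active affinity-purified piRISC carrying one synthetic guide, with or without 500 nM GTSF1 partner protein, in HEPES–potassium acetate buffer at 33 °C for 0–8 or 0–960 min. Uncleaved targets were sequenced and normalised to depth and to weakly complementary targets, with three trials pooled and k3 capped at 0.0001 min^-1.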
row,Sequence,pre-steady-state target cleavage rate
1,AUCACUGUCACCUUCUCUGAGAGAGUAACA,0.397 ± 0.049
2,AUCACAGUGACCUUCUCUGAGAGAUUAACA,0.515 ± 0.026
3,UAGUCUGUAACCUUCUCUGAGAGAUUAACA,0.644 ± 0.037
4,AUCACUGUCACCUUCUCAGACAGAUUAACA,0.123 ± 0.01
5,UAGUCAGUCACCUUCUCUGAGAGAUUAUGA,0.124 ± 0.024
6,UAGUGACAGUGGAACUCUGAGAGAUUACA,< 0.0001
7,UACACUGUCGACCUUCUCUGAGAGAUUAACA,0.229 ± 0.026
8,UAGUCUGUCACCUUCACUGAGAGAAUAACA,0.146 ± 0.033
9,UAGUCUGUCACCUUCUCUGAGAGUAAUUGA,0.0434 ± 0.015
10,UACUCUGUCACCUUGUCUGAGAGAUUAACA,0.315 ± 0.047
11,UAGUGAGUCACCUUCUCUCAGAGAUAAACA,0.0437 ± 0.011
12,UAGUGACAGACGUUCUCUGAGAGAUAAACA,0.00538 ± 0.0027
13,AACACUGUCACCAUCUCUGAGAGAUUAACA,0.77 ± 0.035
14,AUCACUGUCGACCUUCUCUGAGAGAUUAACA,0.172 ± 0.017
15,UAGUGACACACCUUCAGUGAGAGAUUAAGA,0.00796 ± 0.0045
16,UUCACUGUCACCAUCUCAGAGAGAUUAACA,0.11 ± 0.014
17,UAGUGACAGACCUCUCUCUGAGAGAUUAACA,0.0185 ± 0.0034
18,UAGUGUGUCACCUUCUCUGAGAGUAUUUGA,0.0748 ± 0.029
19,AUCACUGUCACCUACUCUGAGAGAUUAUCA,0.272 ± 0.038
20,UAGUGACACACCUUCUGUGAGAGAUUUACA,0.0925 ± 0.013
21,UAGUGACUGUCCUUCUCUGAGAGAUUAACA,0.239 ± 0.029
22,UAGUGUGUCACCAUGUCUGAGAGAUUAACA,0.105 ± 0.012
23,UAGUGACAGUGGAAGAGUGACAGAAUAACA,< 0.0001
24,UAGUGUGUCACCAUCACUGAGAGAUUAACA,0.407 ± 0.043

row,Sequence,pre-steady-state target cleavage rate
1,UAGUGACACACCAUCUCUCAGAGAUUAACA,0.0101 ± 0.0048
2,UAGACUGUCAGCCUUCUCUGAGAGAUUAACA,0.231 ± 0.024
3,UUCACUGUCACCUUCUCUGAGCAGAUUAACA,0.00797 ± 0.0019
4,UACACUGUCACCUUCUCUGAGUAGAUUAACA,0.0159 ± 0.0063
5,UACACUGUCACCUUCUCUGAGUCUUUAUGA,0.00482 ± 0.0034
6,UAGUGACUCACCUUCUCUGUGAGAUUAAGA,0.0443 ± 0.0087
7,UAGUGUGUCACCUUCUCUGACAGAUAAACA,0.0549 ± 0.013
8,UACACUGUCACCUUCUCUGAGACAUAAACA,0.0579 ± 0.014
9,UAGUGAGUCACCUUGUCUCAGAGAUUAACA,0.0282 ± 0.0037
10,UUCACUGUCACCAUCUCUGAGAGAUUAAGA,0.134 ± 0.025
11,UAGUGAGUCUCCUUCUCUGAGAGAUAAACA,0.0762 ± 0.014
12,UACACUGUCACCUUCUCUGAGAGUUUAUGA,0.182 ± 0.054
13,UACUCUGUCACCUUCUCUGAGAGAUUUACA,0.409 ± 0.048
14,UAGUCUGUCACCUUCUCUGAGACAUAAACA,0.0237 ± 0.0074
15,UUCACUGUCACCUUCUCUGAGAAAUUAACA,0.273 ± 0.034
16,UUCACUGUCACCUUCUCUGAGACUUUAACA,0.0804 ± 0.02
17,UACACUGUCACCAAGUCUGAGAGAUUAACA,0.142 ± 0.018
18,UAGUCUGUCACCUUUUCUGAGAGAUUAACA,0.542 ± 0.029
19,UAGUGACUCACCUUCUCUGACAGUUUAACA,0.0576 ± 0.0089
20,UAGUGACACACCUACUCUGAGAGAUUUACA,0.0627 ± 0.012
21,UAGUGUGACACCUUCUCUGAGAGAUAUUGA,0.00676 ± 0.0045
22,UAGUGAGUCACCUUCUCUGAGUGAAUAACA,0.0154 ± 0.0058
23,UAGAGUGUCACCUUCUCUGACAGAUUAACA,0.459 ± 0.029
24,UAGUCUGUCACCUUCUCUGAGAGAUUAAUCA,0.277 ± 0.039

row,Sequence,pre-steady-state target cleavage rate
1,UAGUGUGUCACCUUCUCAGAGAGUUUAACA,0.255 ± 0.064
2,UAGUGAGUCACCUUCUUGAGAGAUUAACA,0.0288 ± 0.0073
3,UAGUGACACACCUUCUCUGAGAGAUUAUACA,0.246 ± 0.043
4,UAGUGACAGUCCCUUCUCUGAGAGAUUAACA,0.611 ± 0.046
5,UAGUGACUCACGUUCUCUGAGAGAUUUACA,0.0848 ± 0.016
6,UAGUGACUCACCAUCUCUGAGUGAUUAACA,0.0118 ± 0.0023
7,AUCACUGUCACCUUCUCUGUGAGUUUAACA,0.176 ± 0.017
8,UACACUGUCACCUUCUUUGAGAGAUUAACA,0.553 ± 0.04
9,UUCACUCUCACCUUCUCUGAGAGAUUAACA,0.54 ± 0.028
10,UAGUGUGUCACCUUCUCUGAGAGUUAACA,0.108 ± 0.032
11,UUCACUGAGACCUUCUCUGAGAGAUUAUGA,0.022 ± 0.0075
12,UAGUGACAGUGGUUGUGUGAGAGAUUAACA,< 0.0001
13,UAGUGAGUCACGAUCUCUGAGAGAUUAUGA,0.00927 ± 0.0037
14,UAGUGUGUCACGAUCUCUGAGAGAUUAACA,0.332 ± 0.022
15,UAGUGACAGUCCGUCUCUGAGAGAUUAACA,0.0126 ± 0.0033
16,UAGUGACAGAGCUUCUCUGAGAGAUAAACA,0.00756 ± 0.0026
17,UAGUCUGUCACCUUCUCUGAGAGACUUAACA,0.196 ± 0.029
18,UAGUGACACUCCUUCUCAGAGAGAUUAACA,0.0209 ± 0.0051
19,UAGACUGUGACCUUCUCUGAGAGUUUAACA,0.323 ± 0.043
20,UAGACUGUCACGUUCUCUGAGAGAAUAACA,0.202 ± 0.032
21,UAGUCUGUACCUUCUCUGAGAGAUUAACA,0.636 ± 0.038
22,UACACUGUCACCUUCUCAGAGAGAUUAUGA,0.0406 ± 0.014
23,UACACUGACACCUUGUCUGAGAGAUUAACA,0.141 ± 0.022
24,UAGUGAGUCACCUUCUCUGAGACGAUUAACA,0.0201 ± 0.0076
